# Assay results: PMC4336329 (PLoS ONE, 2015)
# Screen size: about 310,000 compounds; about 2,200 (0.71%) showed an effect of 50% or more. Effects have a minus sign here. Some of the results follow.
# Target: human ether-à-go-go-related gene (hERG) potassium channel (human, UniProt Q12809)
# Assay: primary screen, population patch clamp on CHO cells stably expressing hERG
# Sequence of human ether-à-go-go-related gene (hERG) potassium channel (Q12809 whole entry, looked up): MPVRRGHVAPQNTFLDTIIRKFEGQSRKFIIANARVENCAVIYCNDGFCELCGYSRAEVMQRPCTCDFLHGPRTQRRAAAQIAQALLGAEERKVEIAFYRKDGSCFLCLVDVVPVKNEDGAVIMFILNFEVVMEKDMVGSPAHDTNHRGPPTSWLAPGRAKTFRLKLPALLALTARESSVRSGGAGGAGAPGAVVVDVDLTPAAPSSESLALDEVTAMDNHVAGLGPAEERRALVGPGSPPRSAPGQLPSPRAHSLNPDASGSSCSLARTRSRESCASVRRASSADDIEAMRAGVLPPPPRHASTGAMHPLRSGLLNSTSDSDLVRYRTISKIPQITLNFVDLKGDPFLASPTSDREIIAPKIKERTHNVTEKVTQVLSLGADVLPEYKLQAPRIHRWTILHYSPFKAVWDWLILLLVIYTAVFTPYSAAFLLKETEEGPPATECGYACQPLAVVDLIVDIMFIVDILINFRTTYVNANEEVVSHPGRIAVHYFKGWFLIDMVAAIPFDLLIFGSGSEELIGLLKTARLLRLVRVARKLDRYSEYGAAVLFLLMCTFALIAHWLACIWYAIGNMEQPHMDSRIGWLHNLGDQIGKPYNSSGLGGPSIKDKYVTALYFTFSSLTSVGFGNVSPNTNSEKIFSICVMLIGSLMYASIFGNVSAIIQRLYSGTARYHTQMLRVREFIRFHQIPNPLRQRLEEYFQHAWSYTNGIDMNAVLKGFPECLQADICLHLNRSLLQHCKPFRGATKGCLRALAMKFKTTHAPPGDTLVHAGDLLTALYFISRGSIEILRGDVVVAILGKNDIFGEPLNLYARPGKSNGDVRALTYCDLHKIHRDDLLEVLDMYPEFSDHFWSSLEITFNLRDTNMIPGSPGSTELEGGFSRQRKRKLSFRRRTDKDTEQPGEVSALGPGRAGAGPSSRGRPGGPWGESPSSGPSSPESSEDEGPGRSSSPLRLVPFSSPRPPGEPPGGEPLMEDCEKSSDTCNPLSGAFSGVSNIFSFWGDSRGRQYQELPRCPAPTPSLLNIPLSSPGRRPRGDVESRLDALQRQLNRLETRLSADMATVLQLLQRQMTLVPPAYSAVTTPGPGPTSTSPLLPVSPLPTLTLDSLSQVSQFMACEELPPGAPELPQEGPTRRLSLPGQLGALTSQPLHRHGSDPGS
row,Compound,"hERG current change (%, negative = inhibition) at 1uM [%]"
1,Cc1ccc2c(NC(=O)c3ccco3)cccc2n1,9.15
2,O=C(CN1C(=O)c2cccc([N+](=O)[O-])c2C1=O)OCC(=O)N1CCCCC1,7.29
3,COc1cccc2c1C(=O)c1c(O)c3c(c(O)c1C2=O)C[C@@](O)(C(=O)CO)C[C@@H]3O[C@H]1C[C@H](N)[C@@H](O)[C@H](C)O1.Cl,13.3
4,COc1cccc(-c2cc3nc(-c4ccccc4)cc(N4CCCC(O)C4)n3n2)c1 (stereo not shown),5.78
5,Cc1[nH]c(=O)[nH]c(=O)c1Cc1cccc2ccccc12,19.8
6,O=C(NNC(=O)c1cccc2ccccc12)c1ccccc1O,7.43
7,O=C(CSc1nnc2ccccn12)NC(=O)Cc1ccccc1,18.1
8,COc1ccc(C)cc1NC(=O)C1CCCN(S(=O)(=O)c2cccc3nonc23)C1 (stereo not shown),5.92
9,O=C(Nc1cccc(OC(=O)c2cccnc2)c1)c1cccnc1,15.1
10,COc1ccc(N=Cc2c(O)[nH]c3ccccc23)cc1,-11
11,CC(=O)OCCCCON1C(=O)c2ccccc2C1=O,12
12,OCC[C@@H]1C[C@H](O)[C@@H](O)[C@@]2(CCCO2)O1,-1.76
13,CCc1ccccc1OCC(=O)Nc1cccc(S(=O)(=O)NC2=NCCCCC2)c1,5.88
14,Cc1c(CC(=O)O)c(=O)oc2cc(OCc3ccc(F)cc3Cl)ccc12,11.5
15,CC1CCc2nc3ccccc3c(C(=O)OCC(=O)N(C)C3CCS(=O)(=O)C3)c2C1 (stereo not shown),8.28
16,O=C(Nc1cccc(S(=O)(=O)NC2=NCCC2)c1)C1CCC1,5.29
17,O=C(NN1CCOCC1)c1ccco1,16.2
18,Fc1ccc(CSc2nncn2NCc2ccccc2)cc1,3.39
19,Cc1[nH]c2ccccc2c1C(=O)CN1CC=C(c2ccccc2)CC1,-6.34
20,CCOC(=O)C1CCCN(c2cc(=O)n(-c3ccccc3Cl)c(=O)[nH]2)C1 (stereo not shown),10.9
21,COc1ccc(Nc2cc(C)c3ccccc3n2)cc1,13.5
22,COc1cccc2c1OC1(CCN(C(C)C)CC1)N1N=C(c3cccnc3)CC21 (stereo not shown),8.8
23,O=C(NCC1COc2ccccc2O1)c1ccc(Cl)cc1 (stereo not shown),5.32
24,CSCCC(NC(=O)c1ccccc1)C(=O)O (stereo not shown),9.4
25,COc1cc(C2(O)CCCCC2C)cc(OC)c1OC (stereo not shown),12.8
